Results taken from PMC9911399, “Two distinct binding modes provide the RNA-binding protein RbFox with extraordinary sequence specificity”.
Substitutions are numbered along the chain they refer to; changes in the protein carry UniProt numbers. This is one part of the list.

T1: RBFOX1 RRM (Homo sapiens, UniProt Q9NWB1 109-208)
T1 sequence: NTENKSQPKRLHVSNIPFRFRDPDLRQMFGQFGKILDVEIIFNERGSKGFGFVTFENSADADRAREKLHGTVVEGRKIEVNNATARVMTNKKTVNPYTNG

B1: CGUUCAA (DNA:RNA)
RNA: GGGAGACCGGAAUUCAGAUUGUCCCGUUCAAUUAAAUCCCGUCGUAGCCACCA
DNA 1: CAATCTGAATTCCGGTCTCCC
DNA 2: TGGTGGCTACGACGGGATT
B2: GGUACUC (DNA:RNA)
RNA: B1 RNA with C25G, U28A, A30U, A31C
DNA 1: CAATCTGAATTCCGGTCTCCC
DNA 2: TGGTGGCTACGACGGGATT
B3: CUAGGCC (DNA:RNA)
RNA: B1 RNA with G26U, U27A, U28G, C29G, A30C, A31C
DNA 1: CAATCTGAATTCCGGTCTCCC
DNA 2: TGGTGGCTACGACGGGATT
B4: GAAAAGU (DNA:RNA)
RNA: GGGAGACCGGAAUUCAGAUUGUCCGAAAAGUUUAAAUCCCGUCGUAGCCACCA
DNA 1: CAATCTGAATTCCGGTCTCCC
DNA 2: TGGTGGCTACGACGGGATT
B5: UGCCGCU (DNA:RNA)
RNA: B1 RNA with C25U, U27C, U28C, C29G, A30C, A31U
DNA 1: CAATCTGAATTCCGGTCTCCC
DNA 2: TGGTGGCTACGACGGGATT
B6: UACCUAU (DNA:RNA)
RNA: B4 RNA with G25U, A27C, A28C, A29U, G30A
DNA 1: CAATCTGAATTCCGGTCTCCC
DNA 2: TGGTGGCTACGACGGGATT
B7: GGAUGAG (DNA:RNA)
RNA: B1 RNA with C25G, U27A, C29G, A31G
DNA 1: CAATCTGAATTCCGGTCTCCC
DNA 2: TGGTGGCTACGACGGGATT
B8: GCUAAAG (DNA:RNA)
RNA: B4 RNA with A26C, A27U, G30A, U31G
DNA 1: CAATCTGAATTCCGGTCTCCC
DNA 2: TGGTGGCTACGACGGGATT
B9: CAUUUUU (DNA:RNA)
RNA: B1 RNA with G26A, C29U, A30U, A31U
DNA 1: CAATCTGAATTCCGGTCTCCC
DNA 2: TGGTGGCTACGACGGGATT
B10: GUUCUAA (DNA:RNA)
RNA: B1 RNA with C25G, G26U, U28C, C29U
DNA 1: CAATCTGAATTCCGGTCTCCC
DNA 2: TGGTGGCTACGACGGGATT
B11: UAUCUGC (DNA:RNA)
RNA: B4 RNA with G25U, A27U, A28C, A29U, U31C
DNA 1: CAATCTGAATTCCGGTCTCCC
DNA 2: TGGTGGCTACGACGGGATT
B12: CUAGCAU (DNA:RNA)
RNA: B1 RNA with G26U, U27A, U28G, A31U
DNA 1: CAATCTGAATTCCGGTCTCCC
DNA 2: TGGTGGCTACGACGGGATT
B13: ACGGCAU (DNA:RNA)
RNA: B1 RNA with C25A, G26C, U27G, U28G, A31U
DNA 1: CAATCTGAATTCCGGTCTCCC
DNA 2: TGGTGGCTACGACGGGATT
B14: CUAAGCG (DNA:RNA)
RNA: B4 RNA with G25C, A26U, A29G, G30C, U31G
DNA 1: CAATCTGAATTCCGGTCTCCC
DNA 2: TGGTGGCTACGACGGGATT
B15: GCCUAUU (DNA:RNA)
RNA: B4 RNA with A26C, A27C, A28U, G30U
DNA 1: CAATCTGAATTCCGGTCTCCC
DNA 2: TGGTGGCTACGACGGGATT
B16: CUUCCGA (DNA:RNA)
RNA: B1 RNA with G26U, U28C, A30G
DNA 1: CAATCTGAATTCCGGTCTCCC
DNA 2: TGGTGGCTACGACGGGATT
B17: AGGUCAG (DNA:RNA)
RNA: B1 RNA with C25A, U27G, A31G
DNA 1: CAATCTGAATTCCGGTCTCCC
DNA 2: TGGTGGCTACGACGGGATT
B18: CGUUGGA (DNA:RNA)
RNA: B1 RNA with C29G, A30G
DNA 1: CAATCTGAATTCCGGTCTCCC
DNA 2: TGGTGGCTACGACGGGATT
B19: AAAAACU (DNA:RNA)
RNA: B4 RNA with G25A, G30C
DNA 1: CAATCTGAATTCCGGTCTCCC
DNA 2: TGGTGGCTACGACGGGATT
B20: AACUCUA (DNA:RNA)
RNA: B1 RNA with C25A, G26A, U27C, A30U
DNA 1: CAATCTGAATTCCGGTCTCCC
DNA 2: TGGTGGCTACGACGGGATT
B21: UGGAGUU (DNA:RNA)
RNA: B4 RNA with G25U, A26G, A27G, A29G, G30U
DNA 1: CAATCTGAATTCCGGTCTCCC
DNA 2: TGGTGGCTACGACGGGATT
B22: GGAUUUG (DNA:RNA)
RNA: B1 RNA with C25G, U27A, C29U, A30U, A31G
DNA 1: CAATCTGAATTCCGGTCTCCC
DNA 2: TGGTGGCTACGACGGGATT
B23: AUAUAAA (DNA:RNA)
RNA: B1 RNA with C25A, G26U, U27A, C29A
DNA 1: CAATCTGAATTCCGGTCTCCC
DNA 2: TGGTGGCTACGACGGGATT
B24: CUUGCGA (DNA:RNA)
RNA: B1 RNA with G26U, U28G, A30G
DNA 1: CAATCTGAATTCCGGTCTCCC
DNA 2: TGGTGGCTACGACGGGATT
B25: CAAUACA (DNA:RNA)
RNA: B1 RNA with G26A, U27A, C29A, A30C
DNA 1: CAATCTGAATTCCGGTCTCCC
DNA 2: TGGTGGCTACGACGGGATT
B26: UUUGCCG (DNA:RNA)
RNA: B1 RNA with C25U, G26U, U28G, A30C, A31G
DNA 1: CAATCTGAATTCCGGTCTCCC
DNA 2: TGGTGGCTACGACGGGATT
B27: UUUAUCG (DNA:RNA)
RNA: B1 RNA with C25U, G26U, U28A, C29U, A30C, A31G
DNA 1: CAATCTGAATTCCGGTCTCCC
DNA 2: TGGTGGCTACGACGGGATT
B28: AAGGAUC (DNA:RNA)
RNA: B4 RNA with G25A, A27G, A28G, G30U, U31C
DNA 1: CAATCTGAATTCCGGTCTCCC
DNA 2: TGGTGGCTACGACGGGATT
B29: CGGCACU (DNA:RNA)
RNA: B1 RNA with U27G, U28C, C29A, A30C, A31U
DNA 1: CAATCTGAATTCCGGTCTCCC
DNA 2: TGGTGGCTACGACGGGATT
B30: CAGGUCC (DNA:RNA)
RNA: B1 RNA with G26A, U27G, U28G, C29U, A30C, A31C
DNA 1: CAATCTGAATTCCGGTCTCCC
DNA 2: TGGTGGCTACGACGGGATT
B31: UUCUACG (DNA:RNA)
RNA: B1 RNA with C25U, G26U, U27C, C29A, A30C, A31G
DNA 1: CAATCTGAATTCCGGTCTCCC
DNA 2: TGGTGGCTACGACGGGATT

Target: T1, RBFOX1 RRM
Test: EMSA; HiTS-Eq, 1 nM pool, 10 min; buffer printed only for the single-RNA assays: 10 mM Tris pH 7.5, 150 mM NaCl, 3.4 mM EDTA, 0.001% NP-40, 30 C
Settings: tags: His6 N-terminal (pET28a); label: 5' 32P
Outline: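 Purified wild-type or mutant RbFox RRM at increasing concentrations was equilibrated with 1 nM of 5′-radiolabelled RNA carrying 7 randomized nucleotides for 10 min in 50 µL. Unbound RNA was separated by 8% native PAGE and sequenced. Relative association constants came from read-count changes of each RNA species compared with the control reaction, normalised to the cognate motif.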

First: B1
Second: B2
The binding signal of the first is lower: 0.00656 KA relative to UGCAUGU for the first, 0.032 KA relative to UGCAUGU for the second.

Compared with B3, B4 is lower in binding signal: 0.00877 KA relative to UGCAUGU for the first, 0.00662 KA relative to UGCAUGU for the second.

Compared with B5, B6 is lower in binding signal: 0.0179 KA relative to UGCAUGU for the first, 0.00482 KA relative to UGCAUGU for the second.

First: B7
Second: B8
The binding signal of the first is higher: 0.0205 KA relative to UGCAUGU for the first, 0.0137 KA relative to UGCAUGU for the second.

First: B9
Second: B10
The binding signal of the first is higher: 0.00699 KA relative to UGCAUGU for the first, 0.005 KA relative to UGCAUGU for the second.

Compared with B11, B12 is lower in binding signal: 0.0226 KA relative to UGCAUGU for the first, 0.00771 KA relative to UGCAUGU for the second.

Compared with B13, B14 is lower in binding signal: 0.0117 KA relative to UGCAUGU for the first, 0.00989 KA relative to UGCAUGU for the second.

First: B15
Second: B16
The binding signal of the first is higher: 0.0114 KA relative to UGCAUGU for the first, 0.00692 KA relative to UGCAUGU for the second.

First: B17
Second: B18
The binding signal of the first is higher: 0.0133 KA relative to UGCAUGU for the first, 0.00714 KA relative to UGCAUGU for the second.

Compared with B19, B20 is higher in binding signal: 0.000453 KA relative to UGCAUGU for the first, 0.00136 KA relative to UGCAUGU for the second.

First: B21
Second: B22
The binding signal of the first is lower: 0.0241 KA relative to UGCAUGU for the first, 0.034 KA relative to UGCAUGU for the second.

First: B23
Second: B24
The binding signal of the first is lower: 0.000659 KA relative to UGCAUGU for the first, 0.015 KA relative to UGCAUGU for the second.

First: B25
Second: B26
The binding signal of the first is lower: 0.000667 KA relative to UGCAUGU for the first, 0.016 KA relative to UGCAUGU for the second.

First: B27
Second: B28
The binding signal of the first is higher: 0.0113 KA relative to UGCAUGU for the first, 0.00964 KA relative to UGCAUGU for the second.

Compared with B29, B30 is lower in binding signal: 0.0111 KA relative to UGCAUGU for the first, 0.0102 KA relative to UGCAUGU for the second.

With B31 the binding signal was 0.0102 KA relative to UGCAUGU.
